# Several values for one entry are separate records, joined by “and”; a condition that tells them apart may be missing. Identical values can stand only once. The inconclusive results got no clear call from the source; some entries with a clear call stand among them for comparison. For some of these results: Where the call is inconclusive, the potency comes from a doubtful curve fit. Activity calls are given as the source filed them. Unless noted, calls follow the shape of the dose curve; as a rule, active = well fitted curve in the direction sought with a large enough effect in the repeat runs; inconclusive = weak or mixed curves; inactive = no such curve, though single readings can be large; an effect the other way counts as inactive or inconclusive.
# Experiments:
# [1] = qHTS assay to identify small molecule antagonists of the retinoid acid receptor (RAR) signaling pathway - cell viability counter screen (AID 1159551); also: potency is read from the fitted curve at half-maximal effect; nearly all actives have a fitted effect of over 35% in size
# Method in brief: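 In this counter screen, the RARE-luciferase line C3RL4 was exposed for 6 h at 37 C and 5% CO2 to compounds with retinol at 1 uM final. Cellular ATP, read by luminescence, served as the viability measure.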
# [2] = qHTS assay to identify small molecule antagonists of the retinoic acid receptor (RAR) signaling pathway (AID 1159552; also: potency is read from the fitted curve at half-maximal effect; nearly all actives have a fitted effect of over 50% in size)
# Method in brief: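 Retinol signaling pathway inhibitors screened in C3RL4 RARE-luciferase reporter cells seeded overnight at 37 C, then compounds added with 1 uM (final) retinol as pathway substrate. After 6 hr at 37 C, luciferase luminescence read after 30 min at room temperature.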
# [3] = qHTS assay to identify small molecule agonists of the retinoic acid receptor (RAR) signaling pathway (AID 1159553); settings: C3RL4 RARE luciferase reporter, agonist, 6 h; activation: at 73.3 µM (top of the series) unless noted; also: potency is read from the fitted curve at half-maximal effect
# Method in brief: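 In this cell-based screen, 1,000 C3RL4 cells per well were cultured overnight, dosed with test chemicals in DMSO for 6 hr, and assessed for RARE luciferase luminescence.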
# [4] = qHTS assay to identify small molecule antagonists of the estrogen related receptor signaling pathway with the pleiotropic PPARgamma coactivator (PGC) from Tox21 10K library - cell viability counter screen (AID 1224840; active = well fitted cell-killing curve with a large enough effect in the repeat runs, not every such curve was filed as active; inconclusive = weak or mixed curves, or effect the other way; inactive = no such curve, though single readings can be large or run the other way; also: nearly all actives have a fitted effect of over 40% in size; also: potency is read from the fitted curve at half-maximal effect)
# Method in brief: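 Readout: fluorescence intensity from CellTiter-Fluor after 30 min at 37 C/5% CO2. Preceded by 17.5 h treatment of PGC/ERR cells with DMSO-dissolved compounds, added 6 h post-seeding.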
# [5] = biological target: Thyrotropin receptor (Homo sapiens) (UniProt P16473); assay: qHTS assay to identify small molecule agonists of the thyroid stimulating hormone receptor (TSHR) signaling pathway (AID 1224843; calls by dose curve; also: % is scaled to controls: 0 for no effect and ±100 for the full control effect; nearly all actives have a fitted effect of over 45% in size); settings: TSHR-HEK293 cells, cAMP HTRF, agonist mode, 30 min; activation: at 92.4 µM (top of the series) unless noted
# Method in brief: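 Agonist activity read as cAMP rise via d2/cryptate HTRF competition, 1 h room-temperature detection, in HEK293 cells expressing TSHR. Fifteen-point titrations, each run in triplicate, with a 30 min room-temperature incubation beforehand.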
# [6] = qHTS assay to identify small molecule agonists of the hypoxia (HIF-1) signaling pathway - cell viability counter screen (AID 1224844; calls by dose curve; also: potency is read from the fitted curve at half-maximal effect; nearly all actives have a fitted effect of over 50% in size)
# Method in brief: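 In this counter screen, HRE-bla ME-180 cell viability after 17 hrs of compound exposure at 37C was read by CellTiter-Glo luminescence, multiplexed with the beta-lactamase reporter measurement.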
# [7] = qHTS assay to identify small molecule antagonists of the estrogen related receptor signaling pathway with the pleiotropic PPARgamma coactivator (PGC) cell viability counter screen (AID 1224822;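 also: potency is read from the fitted curve at half-maximal effect; viability read after 17.5 h compound exposure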)
# Method in brief: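 17.5 h compound treatment of PGC/ERR cells at 37 C; readout CellTiter-Fluor fluorescence; run alongside the PGC/ERR antagonist screen to flag cytotoxic compounds.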
# [8] = qHTS assay to identify small molecule antagonists of the estrogen related receptor (ERR) signaling pathway from Tox21 library - cell viability counter screen (AID 1224834); also: potency is read from the fitted curve at half-maximal effect; nearly all actives have a fitted effect of over 30% in size
# Method in brief: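 Counter screen run in ERR cells (2,000 cells/well): cells pre-incubated 6 h, then treated with compounds for 17.5 h at 37 C. Fluorescence was read 30 min after CellTiter-Fluor addition.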
# [9] = biological target: Luciferin 4-monooxygenase (Photinus pyralis) (UniProt P08659); assay: qHTS assay to identify small molecule inhibitors of firefly luciferase (AID 1224835); also: potency is read from the fitted curve at half-maximal effect; nearly all actives have a fitted effect of over 25% in size
# Method in brief: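 Inhibition of purified Photinus luciferase is measured by luminescence. Substrate levels (D-luciferin, ATP) sit at their KM values. Each compound is tested in a concentration series.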
# [10] = qHTS assay to identify small molecule antagonists of the constitutive androstane receptor (CAR) signaling pathway - cell viability counter screen (AID 1224837); also: potency is read from the fitted curve at half-maximal effect; nearly all actives have a fitted effect of over 45% in size
# Method in brief: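 CITCO at 50 nM final was added alongside compounds (15 concentrations) to double-stable hCAR/CYP2B6-2.2kb HepG2 cells. Following 23 hr at 37 C, cell viability was quantified by CellTiter-Fluor fluorescence intensity.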
# [11] = biological target: Nuclear receptor subfamily 1 group I member 3 (Homo sapiens) (UniProt Q14994); assay: qHTS assay to identify small molecule antagonists of the constitutive androstane receptor (CAR) signaling pathway (AID 1224838); also: potency is read from the fitted curve at half-maximal effect; nearly all actives have a fitted effect of over 40% in size
# Method in brief: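 Inhibition of CITCO-driven (50 nM final) CYP2B6 reporter expression is measured in HepG2 cells stably carrying hCAR. Fifteen compound concentrations are applied for 24 h at 37 C, followed by luciferase luminescence.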
# [12] = biological target: Nuclear receptor subfamily 1 group I member 3 (Homo sapiens) (UniProt Q14994); assay: qHTS assay to identify small molecule agonists of the constitutive androstane receptor (CAR) signaling pathway (AID 1224839); also: potency is read from the fitted curve at half-maximal effect; nearly all actives have a fitted effect of over 15% in size
# Method in brief: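 HepG2 cells stably co-transfected with hCAR and a CYP2B6-2.2kb luciferase reporter; compounds at 15 concentrations with 0.75 uM PK11195 present. After 24 hr at 37 C, luciferase read by ONE-Glo luminescence.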
# [13] = qHTS assay to identify small molecule antagonists of the estrogen related receptor (ERR) signaling pathway (AID 1224819;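 also: luminescence from an ERR-driven luciferase reporter measured with One-Glo reagent; % is scaled to controls: 0 for no effect and ±100 for the full control effect; nearly all actives have a fitted effect of over 50% in size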)
# Method in brief: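 Seed ERR cells 2,000/well; rest 6 h at 37 C/5% CO2; pin compounds in DMSO; incubate 18 h at 37 C; add One-Glo; wait 30 min at room temperature; measure luminescence.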
# [14] = qHTS assay to identify small molecule agonists of the estrogen related receptor (ERR) signaling pathway (AID 1224820); settings: ERR reporter cell line, luciferase agonist mode; also: potency is read from the fitted curve at half-maximal effect
# Method in brief: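 An ERR cell line provided by NTP was seeded at 2,000 cells per well and allowed to settle for 6 h before compounds in DMSO were added. After 18 h at 37 C, luciferase activity was measured by One-Glo luminescence.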
# Tags tell the direction and shape of the fitted curve.
# UniProt P16473, sequence (P16473 whole entry, looked up): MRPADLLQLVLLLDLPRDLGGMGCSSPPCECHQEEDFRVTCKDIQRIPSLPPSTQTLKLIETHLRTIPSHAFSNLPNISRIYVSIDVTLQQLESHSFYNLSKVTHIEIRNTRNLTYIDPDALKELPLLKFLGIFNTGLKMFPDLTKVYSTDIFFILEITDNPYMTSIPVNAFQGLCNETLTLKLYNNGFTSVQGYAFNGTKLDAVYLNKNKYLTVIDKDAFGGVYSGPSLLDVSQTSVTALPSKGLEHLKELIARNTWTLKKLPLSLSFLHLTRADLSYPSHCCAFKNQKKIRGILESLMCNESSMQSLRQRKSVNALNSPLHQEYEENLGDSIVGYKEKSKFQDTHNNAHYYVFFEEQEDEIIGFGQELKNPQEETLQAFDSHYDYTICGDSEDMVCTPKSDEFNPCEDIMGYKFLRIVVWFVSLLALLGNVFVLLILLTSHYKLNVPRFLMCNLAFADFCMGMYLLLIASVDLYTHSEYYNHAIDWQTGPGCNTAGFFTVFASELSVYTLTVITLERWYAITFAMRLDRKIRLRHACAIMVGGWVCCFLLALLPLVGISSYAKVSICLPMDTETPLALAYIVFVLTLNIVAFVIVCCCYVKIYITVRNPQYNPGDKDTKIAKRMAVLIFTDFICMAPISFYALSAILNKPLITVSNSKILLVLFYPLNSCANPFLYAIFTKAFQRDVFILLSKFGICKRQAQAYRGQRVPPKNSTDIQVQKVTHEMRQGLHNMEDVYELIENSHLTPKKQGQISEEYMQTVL
# UniProt P08659, sequence (P08659 whole entry, looked up): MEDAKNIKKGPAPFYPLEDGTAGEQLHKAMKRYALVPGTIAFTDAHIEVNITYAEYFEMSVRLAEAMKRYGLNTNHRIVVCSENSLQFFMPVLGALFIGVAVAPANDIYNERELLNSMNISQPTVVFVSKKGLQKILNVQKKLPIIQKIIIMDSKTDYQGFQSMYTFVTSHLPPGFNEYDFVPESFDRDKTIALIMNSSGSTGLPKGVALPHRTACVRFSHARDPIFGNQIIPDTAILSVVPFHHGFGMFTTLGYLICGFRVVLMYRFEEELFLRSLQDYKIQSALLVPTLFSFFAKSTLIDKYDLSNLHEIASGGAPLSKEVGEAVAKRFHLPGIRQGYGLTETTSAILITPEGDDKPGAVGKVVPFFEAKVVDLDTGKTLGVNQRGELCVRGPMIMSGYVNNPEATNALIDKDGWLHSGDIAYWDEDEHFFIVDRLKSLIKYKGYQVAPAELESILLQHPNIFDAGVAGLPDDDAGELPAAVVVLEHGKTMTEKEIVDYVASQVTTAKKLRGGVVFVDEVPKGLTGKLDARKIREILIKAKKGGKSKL
# UniProt Q14994, sequence (Q14994 whole entry, looked up): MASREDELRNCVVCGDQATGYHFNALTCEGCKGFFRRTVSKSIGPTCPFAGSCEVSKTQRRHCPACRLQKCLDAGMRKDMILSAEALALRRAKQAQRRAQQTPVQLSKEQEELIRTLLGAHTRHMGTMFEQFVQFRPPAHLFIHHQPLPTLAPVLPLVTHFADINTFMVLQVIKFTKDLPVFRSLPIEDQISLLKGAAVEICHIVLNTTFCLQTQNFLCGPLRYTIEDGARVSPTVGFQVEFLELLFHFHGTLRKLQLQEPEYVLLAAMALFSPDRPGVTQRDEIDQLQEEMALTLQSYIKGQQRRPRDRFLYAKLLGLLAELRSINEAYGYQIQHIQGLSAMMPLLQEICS
smiles,measurement,setting,value
Cc1[nH]nc2c1N=C(c1ccccc1Cl)c1cc([N+](=O)[O-])ccc1N2,Potency,[1],active: 43.3 µM
same,Potency,[2],active: 30.6 µM
same,Potency,[3],"inconclusive: 38.6 µM [inhibitor, partial curve, poor fit]"
same,Potency,[4],active: 34.4 µM
same,Potency,[5],inactive
same,Potency,[6],"inconclusive: 12.3 µM [cytotoxic, full curve, poor fit]"
Nc1ccccc1N,Potency,[1],"inconclusive: 38.6 µM [rising, partial curve, poor fit]"
same,Potency,[3],active: 1.25 µM and active: 1.72 µM
same,Potency,[7],inconclusive: 24.3 µM [cytotoxic]
same,Potency,[8],"inconclusive: 27.9 µM [cytotoxic] and inconclusive: 12.2 µM [cytotoxic, full curve]"
same,Potency,[9],active: 8.15 µM and active: 1.78 µM
same,Potency,[10],"inconclusive: 1.98 µM [cytotoxic, full curve] and inconclusive: 3.86 µM [cytotoxic, full curve]"
same,Potency,[11],"inconclusive: 0.28 µM [inhibitor, full curve]"
same,Potency,[12],"inconclusive: 55.8 µM [activator, partial curve]"
same,activation,[5],inconclusive: 10.3% and inconclusive: 10.7%
same,Potency,[6],"inconclusive: 31.6 µM [cytotoxic, partial curve] and active: 43.6 µM"
CCCOC(=O)c1ccc(O)cc1,Potency,[1],"inconclusive: 27.3 µM [rising, partial curve, poor fit]"
same,Potency,[3],active: 54.5 µM
same,Potency,[13],inactive
same,Potency,[14],inconclusive: 12.9 µM [activator]
same,Potency,[9],active: 89.4 µM
same,Potency,[4],inactive
